The list shows a part of the results. The data scatter; read single values as rough.
T1: PEX14_Pex14__O75381_16_84
T1 chain: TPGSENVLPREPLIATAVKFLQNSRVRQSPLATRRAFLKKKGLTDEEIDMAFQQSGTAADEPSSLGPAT

T2: TLN2_PTB__Q9Y4G6_312_417
T2 chain: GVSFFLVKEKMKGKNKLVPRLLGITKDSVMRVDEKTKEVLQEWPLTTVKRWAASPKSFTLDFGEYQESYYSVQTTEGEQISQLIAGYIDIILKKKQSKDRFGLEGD

T3: PIK3R1_SH3_1_P27986_6_78
T3 chain: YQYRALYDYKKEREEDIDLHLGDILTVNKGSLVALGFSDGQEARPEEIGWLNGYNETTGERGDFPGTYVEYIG

T4: PTK2_Focal-AT__Q05397_891_1050
T4 chain: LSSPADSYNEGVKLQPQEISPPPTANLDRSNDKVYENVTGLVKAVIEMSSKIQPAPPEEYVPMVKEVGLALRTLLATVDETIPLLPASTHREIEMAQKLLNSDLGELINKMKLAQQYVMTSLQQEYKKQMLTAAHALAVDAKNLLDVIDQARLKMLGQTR


Target: T1, PEX14_Pex14__O75381_16_84
Assay: mutation enrichment score (mutant vs wild-type peptide binding to bait); baits are purified protein domains named by gene / domain / UniProt id / residues; peptides come from disordered regions of human proteins; higher = mutation enhances binding relative to wild type
Details: number of wild-type / mutant comparisons summed (bounds the score): 6; paper call: no_effect; wild-type window: …

Binder	mutation enrichment score
EHDWREAQDSRQELCQKLHAMQGELQWAEELRDQYLQEMED [V342M V342M]	-4.8
QGFRLVPFLTELRAVMDWVWMDTTLSLSSWICVEDIYAHIF [T2356M T2356M]	-0.48

Target: T2, TLN2_PTB__Q9Y4G6_312_417
Assay: as above
Details: number of wild-type / mutant comparisons summed (bounds the score): 6; paper call: no_effect; wild-type window: …

Binder	mutation enrichment score
QGFRLVPFLTELRAVMDWVWMDTTLSLSSWICVEDIYAHIF [T2356M T2356M]	3.7

Target: T1, PEX14_Pex14__O75381_16_84
Assay: as above
Details: number of wild-type / mutant comparisons summed (bounds the score): 12; paper call: diminished; wild-type window: …

Binder	mutation enrichment score
DKHGKPTDSTPATWKQEYVDNSESAKKEVVAEVVKAPQVVA [Y419N Y419N]	-9
KVNTLSKELHSEFSEVMNEICASDQIRSAVLISSKPGCFIA [W80C W80C]	-10

Same assay, conditions: number of wild-type / mutant comparisons summed (bounds the score): 12; paper call: enhanced; wild-type window: …

Binder	mutation enrichment score
IDNGKQREFESRLADALQELWAQHEDQVEQYKKELEKTYSA [R249W R249W]	9
DEHGIDPSGNYVGDSDLQLEWISVYYNEASSHKYVPRAILV [R46W R46W]	10
LGWYMVKSGLEEKSDSHDIPWVSQYRLAAHLGSALVLYCAS [R217W R217W]	8
VAQDELVTFSEELANLYHHVWMCNNETPNRVMLDYYREGQG [C542W C542W]	6

Target: PPIA_full-length__P62937_1_165, P62937
Assay: as above
Details: number of wild-type / mutant comparisons summed (bounds the score): 18; paper call: enhanced; wild-type window: …

Chain of PPIA_full-length__P62937_1_165, P62937 (P62937 whole entry, looked up): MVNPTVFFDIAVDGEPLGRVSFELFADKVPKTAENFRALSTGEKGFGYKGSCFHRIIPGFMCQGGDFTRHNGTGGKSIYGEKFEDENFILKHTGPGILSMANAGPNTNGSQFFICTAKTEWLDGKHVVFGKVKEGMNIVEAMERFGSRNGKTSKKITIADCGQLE

Binder	mutation enrichment score
LGWYMVKSGLEEKSDSHDIPWVSQYRLAAHLGSALVLYCAS [R217W R217W]	14
QYRQVASPRTDPYSAAQLHNEYGPMNMNMGMNMAAAAAHHH [Q213E Q213E]	5.3

Target: T1, PEX14_Pex14__O75381_16_84
Assay: as above
Details: number of wild-type / mutant comparisons summed (bounds the score): 12; paper call: no_effect; wild-type window: …

Binder	mutation enrichment score
KKLMIKQGLLDKHGKPTDSTLATWKQEYVDYSESAKKEVVA [P409L P409L]	0.87
AGPPPPPPPPHPHARIKLENSLDYGSAWAAAAAQCRYGDLA [P392S P392S]	-3
MGLVDQLVEPLGPGLKPPEEWTIEYLEEVAITFAKGLADKK [R235W R235W]	4
EISSDDGFQICAESIEDAWKLLTDKVQEARSNARLKQLSFA [S3692L S3692L]	1
YHNEEDEEEDGGEEGMDEQYWQICNMYTMYSMMNVGQTAEK [R298W R298W]	3
PGAPGSERILLDILEHDWREVQDSRQELCQKLHAVQGELQW [A328V A328V]	4
CPKISLTVAAKELSVSDTDVLEVSWTDNGTFNLSEGYTPQT [S309L S309L]	3
GNSIYIRPYITTPGGTTRQTKQHSGWVSQFNPMNPQQVYQP [Q230K Q230K]	-3

Same assay, conditions: number of wild-type / mutant comparisons summed (bounds the score): 18; paper call: enhanced; wild-type window: …

Binder	mutation enrichment score
GDQEPEAVLAMLRSLDLEGLWSTLAESSDHVEKSPQSLLQD [R785W R785W]	8
TIMEEKERAYTLEEEAVSVQWEEEYEEYEEYDYKEFEEYEP [R10668W R10668W]	7

Target: T3, PIK3R1_SH3_1_P27986_6_78
Assay: as above
Details: number of wild-type / mutant comparisons summed (bounds the score): 9; paper call: enhanced; wild-type window: …

Binder	mutation enrichment score
KEFERLSSPLIVEIVRRKQQLPPRTPLDQPVDIGTSLIQDM [P635L P635L]	7

Same assay, conditions: number of wild-type / mutant comparisons summed (bounds the score): 9; paper call: no_effect; wild-type window: …

Binder	mutation enrichment score
EMGPKLQARETPSLPTPIPLKPKEEPKEAPAPEPQPGSQAQ [Q222K Q222K]	-2

Same assay, conditions: number of wild-type / mutant comparisons summed (bounds the score): 18; paper call: diminished; wild-type window: …

Binder	mutation enrichment score
YAPLLGVPPAVRPTPCAPLAKCKGSLLDDSAGKSTEDTAEY [E289K E289K]	-13
RAVNKAGESEPSEPSDPVLCWEKLYPPSPPRWLEVINITKN [R15005W R15005W]	-9

Same assay, conditions: number of wild-type / mutant comparisons summed (bounds the score): 18; paper call: enhanced; wild-type window: …

Binder	mutation enrichment score
LSPVRSPTPPAAGFQPLLNGRLVPVPPTTPAPGVQLDVEAL [S719R S719R]	13

Same assay, conditions: number of wild-type / mutant comparisons summed (bounds the score): 27; paper call: diminished; wild-type window: …

Binder	mutation enrichment score
VHHCTIHGNTEELRQMAASRKVPRPLSTLPMFNVHTGERLP [E352K E352K]	-12

Target: PPIA_full-length__P62937_1_165, P62937
Assay: as above
Details: number of wild-type / mutant comparisons summed (bounds the score): 6; paper call: diminished; wild-type window: …

Binder	mutation enrichment score
TILGVLNGLVLLPVLLSFFGQYPEVSPANGLNRLPTPSPEP [P1180Q P1180Q]	-6

Same assay, conditions: number of wild-type / mutant comparisons summed (bounds the score): 6; paper call: no_effect; wild-type window: …

Binder	mutation enrichment score
SYMFRPVVPASAPHPRPLQEEEMETYGAGTPLGSVASVHSP [V1951E V1951E]	-0.43
PPGVAKPLFRSTQSLPTVDTLAQAAPQTYAEYAISQPLEGA [S52L S52L]	1.5
LFLGLCDGFFITIMAPIAFEPVGPMQASQAIGYLLGMMALP [L438P L438P]	-3
PNPETTGEEDEEEPEMPVGPHPRPLSELHLKEKAVPMPEAS [R858H R858H]	2

Same assay, conditions: number of wild-type / mutant comparisons summed (bounds the score): 12; paper call: enhanced; wild-type window: …

Binder	mutation enrichment score
SPGAAAVVKGLAGPAASYGPNTRVQSMALPPGVVNSYNGLG [Y258N Y258N]	7.7
ILSLLLGTAYSFYLFHPLAYEMVGPLAQDPQSPMAGLRWLD [G726E G726E]	8.5

Same assay, conditions: number of wild-type / mutant comparisons summed (bounds the score): 12; paper call: no_effect; wild-type window: …

Binder	mutation enrichment score
LYPGIVTFVIASFTFPPGMGPFMAGELMPREAISTLFDNNT [Q412P Q412P]	4
FRVSARNRVGTGEPVETDNPIEARSKYDVPGPPLNVTITDV [V14109I V14109I]	-3.9

Target: PTBP1_RRM_2_P26599_157_285
Assay: as above
Details: number of wild-type / mutant comparisons summed (bounds the score): 6; paper call: diminished; wild-type window: …

Binder	mutation enrichment score
QNNNNRKTSNGDDSLFFSNFLLLGTPVLKDINFKIERGQLL [S434L S434L]	-6
PGLPGPVLPLNLAKNPLLPSLFGAGGLGLPVVSLLAGAAGG [P420L P420L]	-6

Same assay, conditions: number of wild-type / mutant comparisons summed (bounds the score): 6; paper call: no_effect; wild-type window: …

Binder	mutation enrichment score
PPPEDSLMSLPLEESPLLPLHEEPQLCPRSEGPHLSPRPEE [P729H P729H]	-4
RETGEKLLLATGLDGSYLLRYSESVPGVYCLCVLYHGYIYT [D33Y D33Y]	3
PGSLGAPDAPSSPRPLGHFSGGGLLKLPEDALVKAESPEKP [V120G V120G]	5.9
VGASYEWQSRDTPILLEAPTSLAEGSSLHTPLALPPPQPPQ [G126S G126S]	-0.58
QQMAEDKASVKAQVTSLLGERQESQSRLEAATKECQALEGR [L153R L153R]	2

Same assay, conditions: number of wild-type / mutant comparisons summed (bounds the score): 12; paper call: enhanced; wild-type window: …

Binder	mutation enrichment score
LMEFRRDASMLNDELSHINAGLNMGILGSYDPQQIFKCKGT [R371G R371G]	12

Same assay, conditions: number of wild-type / mutant comparisons summed (bounds the score): 18; paper call: enhanced; wild-type window: …

Binder	mutation enrichment score
SLCRARQRVEQEQLLASGSLLGSPDVEECAPNTGQCHLCLP [S321L S321L]	13

Target: USP7_MATH-TRAF__Q93009_53_206
Assay: as above
Details: number of wild-type / mutant comparisons summed (bounds the score): 5; paper call: no_effect; wild-type window: …

Chain of USP7_MATH-TRAF__Q93009_53_206 (chain, as listed by the source): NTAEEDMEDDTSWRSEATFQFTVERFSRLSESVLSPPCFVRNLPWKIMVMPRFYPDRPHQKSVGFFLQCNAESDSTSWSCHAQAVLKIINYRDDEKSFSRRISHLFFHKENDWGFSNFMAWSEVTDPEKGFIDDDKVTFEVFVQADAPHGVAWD

Binder	mutation enrichment score
SLCRARQRVEQEQLLASGSLLGSPDVEECAPNTGQCHLCLP [S321L S321L]	-3

Target: T4, PTK2_Focal-AT__Q05397_891_1050
Assay: as above
Details: number of wild-type / mutant comparisons summed (bounds the score): 5; paper call: no_effect; wild-type window: …

Binder	mutation enrichment score
ERVENRRAFLKLRRQQQIERKLNGYMEWISKAEEVILAEDE [E388K E388K]	-5
RVENRRAFLKLRRQQQIEREFNGYMEWISKAEEVILAEDET [L389F L389F]	-5
VHIVENEIQASIDQIFSRLECLEILSSKEPPNKRQNARLRV [R50C R50C]	1
